Experimental data taken from PubChem BioAssay AID686978 (National Center for Advancing Translational Sciences (NCATS), 2013).
“And” between values parts separate entries of the source, which are not always exact repeats. Equal values may be shown once. Out of some 420,000 compounds screened, about 64,000 (15%) were called active. The shares of active, inactive and inconclusive entries below differ from those in the screen. The call rests on the fitted dose curve; in most records, active means well fitted inhibition curve with a large enough effect; inconclusive means small, poorly fitted or top-dose-only effect; inactive means flat fitted curve, though single readings scatter. Potencies beside an inconclusive call are fits to weak or partial responses and may not hold up.

experiment: qHTS for Inhibitors of human tyrosyl-DNA phosphodiesterase 1 (TDP1): qHTS in cells in absence of CPT; details: DT40 Tdp1-/- hTDP1 cells, no CPT, ATP luminescence, 48 h; activity change, negative = growth inhibition: at 46.2 µM (top of the series) unless noted; further: nearly all actives have a fitted effect of over 55% in size
How it was run: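 Readout: luminescence from CellTiter-Glo after 30 min in the dark at RT. Cells: DT40 Tdp1-/- with stable hTDP1, 400/well. Exposure: compounds alone, ≥48 hr, 37 °C.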
On the % scale 0 is the no-effect control and ±100 the full control effect; potency means the concentration at half of the fitted maximal effect; tags describe the fitted curve by direction and shape.

SMILES	Potency	activity change, negative = growth inhibition
O=c1[nH]c(=S)[nH]c2c1C(c1ccc(F)cc1)OC(C1CCCCC1)C2 (stereo unspecified)	inconclusive: 20.6 µM [inhibitor, single point]	
Cn1nnnc1SCCNCc1ccccc1OCc1ccc(F)cc1	inactive	
O=C(c1ccccc1)C(Cn1cncn1)C(Sc1ccccc1)c1ccccc1 (stereo unspecified)	inconclusive: 20.6 µM [inhibitor, single point]	
CCn1c(CC(=O)Nc2ccccc2)nnc1SCC(=O)N1CCOCC1	inactive	
CC(C)(C)c1ccc(C(=O)OCC(=O)Nc2cccc(S(=O)(=O)NC3=NCCC3)c2)cc1	inconclusive: 29.1 µM [inhibitor, single point]	
COCCn1c(C)cc(/C=C2/NC(=O)N(c3ccc(Cl)cc3)C2=O)c1C	inactive	
Cc1ccc(Nc2nnc(-c3ccc(N4CCOCC4)c([N+](=O)[O-])c3)c3ccccc23)cc1	active: 10.3 µM	
CN(Cc1ccccc1)c1ccc(C(CC(N)=O)NC(=O)c2ccc(Br)cc2)cc1[N+](=O)[O-] (stereo unspecified)	inconclusive: 23.1 µM [inhibitor, single point]	
CC(C)CC(=O)N1CCC(N(CCc2ccccc2)Cc2ccccc2)CC1	inconclusive: 23.1 µM [inhibitor, single point]	
Cc1ccc(NC(=O)CSCC(=O)Nc2ccc(S(=O)(=O)N3CCCC3)cc2)cc1	inconclusive: 23.1 µM [inhibitor, single point]	
Cc1ccc(C(CNS(=O)(=O)c2ccc(F)cc2C)N2CCN(C)CC2)cc1 (stereo unspecified)	inconclusive: 20.6 µM [inhibitor, single point]	
CCCCNc1nc2ccccc2n1CC(=O)Nc1ccc2c(c1)OCCO2	inconclusive: 20.6 µM [inhibitor, single point]	
CN(CC(=O)Nc1cccc(F)c1)C(=O)c1ccc(N2C(=O)c3ccccc3C2=O)cc1		inconclusive: -32.4% [inhibitor]
Cc1cc(-c2ccccc2)nc(Oc2cccc(C(F)(F)F)c2)c1S(C)(=O)=O	inconclusive: 14.6 µM [inhibitor, partial curve, poor fit]	
COc1ccc(NC(=O)c2c([N+](=O)[O-])c(C(C)(C)C)nn2C)cc1	inconclusive: 18.4 µM [inhibitor, single point]	
CC(C)CC(NC(=O)c1ccccc1)C(=O)N/N=C/c1ccco1 (stereo unspecified)	inconclusive: 29.1 µM [inhibitor, single point]	
CCn1c(=O)c2c(nc(SCc3ccccn3)n2C)n(C)c1=O	inactive	
CC(C)c1ccc(CNc2nc(-c3ccco3)nn2S(=O)(=O)c2ccc3ccccc3c2)cc1	inconclusive: 20.6 µM [inhibitor, single point]	
COc1cccc(CN(Cc2ccccc2F)S(=O)(=O)c2ccc(S(=O)(=O)NCc3ccccc3)cc2)c1	inconclusive: 7.31 µM [inhibitor, partial curve]	
O=C(CSc1nc(-c2ccccc2)cs1)NC(=O)NCc1ccco1	inactive	
Cc1nc(SCC(=O)NCc2ccco2)c2c3c(sc2n1)CCCC3	inconclusive: 25.9 µM [inhibitor, single point]	
CCCCCn1c(SCCOCC)nc2c1c(=O)[nH]c(=O)n2C	inconclusive: 20.6 µM [inhibitor, single point]	
COCCNc1nc(NCCCN2CCCC2=O)c2sc(-c3ccccc3)cc2n1	inconclusive: 20.6 µM [inhibitor, single point]	
COc1ccc(C(C(=O)NC2CCCC2)N(C(=O)c2csnn2)C2CCCC2)cc1 (stereo unspecified)		inconclusive: -32.8% [inhibitor]

SMILES	Potency	activity change, negative = growth inhibition
O=C(NCc1ccccc1)C1C(c2ccccc2)=Nc2ccccc2N1C(=O)c1cccnc1 (stereo unspecified)	inactive	
Cc1ccc(OCCCNC2CCCC2)cc1	inactive	
NS(=O)(=O)c1ccc(Nc2nc(-c3cccnc3)cs2)cc1	inconclusive: 32.6 µM [inhibitor, partial curve, poor fit]	
COc1ccc(-n2ncc(N(C)n3cccc3)c(Cl)c2=O)cc1	inconclusive: 32.6 µM [inhibitor, single point]	
Cn1c(Cn2cnc(Cl)c2Cl)nc2ccccc21	inactive	
O=C(NCc1ccccc1Cl)c1[nH]c(C(F)(F)F)nc1-c1ccccc1		inconclusive: -30.1% [inhibitor]
CCN(C(=O)c1cn(C)c(=O)c2ccccc12)c1ccccc1F	inactive	
Cc1ccccc1-c1ccc2ncnc(NCc3cccs3)c2c1	inconclusive: 23.1 µM [inhibitor, single point]	
COc1cc2c(cc1OC)CN(C(=O)/C=C/c1ccc(F)cc1)CC2	inconclusive: 14.6 µM [inhibitor, partial curve]	
CN(C)CCC[C@@]1(c2ccc(F)cc2)OCc2cc(C#N)ccc21	inconclusive: 33.5 µM [inhibitor, single point] and inconclusive: 8.2 µM [inhibitor, partial curve]	
O=S(=O)(c1ccccc1)c1nc(-c2ccc(Cl)cc2Cl)oc1N1CCCCCC1	active: 18.4 µM	
Cc1cccc(C)c1-n1c(SCC(=O)NCc2ccco2)nc2ccccc2c1=O	inconclusive: 20.6 µM [inhibitor, single point]	
Cc1nc2cc(C(=O)OCC(=O)NC3CCS(=O)(=O)C3)ccc2n1-c1ccccc1 (stereo unspecified)	inactive	
CCc1ccc(C2CC(c3ccccc3Cl)Nc3nc(N)nn32)cc1 (stereo unspecified)	inconclusive: 13 µM [inhibitor, single point]	
COc1ccc(C(C(=O)OC(C)CN(C)C)c2ccccc2)cc1 (stereo unspecified)	inactive	
Fc1ccc(F)c(NC(=S)NCCc2ccccc2)c1	active: 16.4 µM	
Cc1cccc(CNc2ccc(S(=O)(=O)N3CCCCC3)cc2)c1	inconclusive: 29.1 µM [inhibitor, partial curve, poor fit]	
CCc1ccc(/C=C/C(=O)c2cc(Br)ccc(=O)c2O)cc1	active: 5.17 µM	
COc1ccc(C)cc1-n1nnnc1SCn1nnc2ccccc2c1=O	active: 16.4 µM	
COc1ccc(CCNC(=O)c2cnn3c(C(F)F)cc(C)nc23)cc1OC	inconclusive: 29.1 µM [inhibitor, single point]	
COc1cc2c(cc1OC)C1CCN3C(=O)CCC3N1CC2 (stereo unspecified)	inconclusive: 16.4 µM [inhibitor, single point]	
O=C(c1ccncc1)N1CCC2(CCCN(c3ccccn3)C2)CC1	inconclusive: 10.3 µM [inhibitor, partial curve, poor fit]	
COc1cc2c(cc1O)CCN(C(=O)CSc1nncn1C)[C@@H]2C	inactive	
Cc1cccc([C@@H]2[C@@H]3C(=O)N(Cc4ccccc4)C(=O)[C@@H]3[C@]3(Cc4ccc(Cl)cc4)C(=O)N(c4cccc(Cl)c4)C(=O)N23)c1	inactive	

SMILES	Potency	activity change, negative = growth inhibition
COc1ccc(CNC(=O)c2ccccc2SCC(=O)NCc2ccco2)cc1	inactive	
CCCC1=[N+](CC(=O)c2ccc(Br)cc2)CCn2cccc21	inconclusive: 29.1 µM [inhibitor, single point]	
NC(=O)COc1cc2oc(=O)c3c(c2cc1Cl)CCCC3	inconclusive: 29.1 µM [inhibitor, single point]	
Cc1ccc(-n2[nH]c3c4c(ccc3c2=O)C(=O)c2ccccc2C4=O)cc1	inactive	
COc1ccc2c(c1)-c1nc(-n3ncc(C(=O)NC(C)(C)CO)c3C3CC3)ncc1CC2	inconclusive: 20.6 µM [inhibitor, single point]	
CC(C)(C)C1=NN(c2ccc([N+](=O)[O-])cc2)C(c2ccccc2)C1 (stereo unspecified)	inconclusive: 8.2 µM [inhibitor, partial curve]	
COc1cccc2c1cc1c(=O)n(CC(=O)N3CCN(c4cc(Cl)ccc4C)CC3)nc(C)n12	inactive	
Cc1ccccc1OCC(=O)N/N=C/c1cc2ccccc2nc1Cl	active: 14.6 µM	
N#Cc1cccc(NC(=O)N2CC[C@@]3(CCCN(C(=O)c4ccncc4)C3)C2)c1	inactive	
NS(=O)(=O)c1ccc(CCNC(=O)c2cc(S(=O)(=O)N3CCCCC3)ccc2Cl)cc1	inactive	
COc1cccc(-c2cc(C(=O)Nc3cc(OC)c(OC)c(OC)c3)on2)c1	active: 2.91 µM	
C#CCOc1c(Cl)cc(/C=N/NC(N)=S)cc1OCC	active: 10.3 µM	
CCOC(=O)c1c(-c2cccc([N+](=O)[O-])c2)csc1NC(=O)CCCOc1ccccc1	inactive	
COc1ccc(N(C(C)=O)S(=O)(=O)c2cccc3cccnc23)cc1	inactive	
C/C(CCc1ccccc1)=N\NC(=O)c1ccc(CN2CCOCC2)cc1	inactive	
S=c1[nH]nc(CCc2ccccc2)n1Cc1ccccc1	inconclusive: 29.1 µM [inhibitor, single point]	
CCOC(=O)C1CCCN(C(=O)c2ccc3c(c2)OCCO3)C1 (stereo unspecified)	inactive	
CC(=O)Nc1ccc(NC(=O)c2sc(-c3ccccc3)nc2C)cc1	inconclusive: 25.9 µM [inhibitor, single point]	
CCCN(C(=O)CSc1cc(-c2ccccc2)c2ccc(OC)cc2n1)C1CCS(=O)(=O)C1 (stereo unspecified)	inconclusive: 32.6 µM [inhibitor, single point]	
CC(C)(C)n1cnc2cc(NCc3ccccc3O)ccc21		inconclusive: -30% [inhibitor]
O=C(NCC(F)(F)F)c1ccc2sc([C@H]3C[C@H](O)[C@@H](CO)O3)nc2c1	inconclusive: 0.731 µM [inhibitor, full curve, poor fit]	
COc1nc(-c2ccccc2)ccc1-c1noc(C)n1	inconclusive: 18.4 µM [inhibitor, single point]	
O=C(CCCn1c(=O)c2cccn2c2cccnc21)NCc1ccc(F)cc1	inconclusive: 25.9 µM [inhibitor, single point]	
